Experimental data reported in PMC4336329 (PLoS ONE, 2015).
The whole screen tested about 310,000 compounds, of which about 2,200 (0.71%) showed an effect of 50% or more. Effects have a minus sign here. The list shows a part of the results.

target: human ether-à-go-go-related gene (hERG) potassium channel (human, UniProt Q12809); experiment: primary screen, population patch clamp on CHO cells stably expressing hERG
Sequence (Q12809 whole entry, looked up): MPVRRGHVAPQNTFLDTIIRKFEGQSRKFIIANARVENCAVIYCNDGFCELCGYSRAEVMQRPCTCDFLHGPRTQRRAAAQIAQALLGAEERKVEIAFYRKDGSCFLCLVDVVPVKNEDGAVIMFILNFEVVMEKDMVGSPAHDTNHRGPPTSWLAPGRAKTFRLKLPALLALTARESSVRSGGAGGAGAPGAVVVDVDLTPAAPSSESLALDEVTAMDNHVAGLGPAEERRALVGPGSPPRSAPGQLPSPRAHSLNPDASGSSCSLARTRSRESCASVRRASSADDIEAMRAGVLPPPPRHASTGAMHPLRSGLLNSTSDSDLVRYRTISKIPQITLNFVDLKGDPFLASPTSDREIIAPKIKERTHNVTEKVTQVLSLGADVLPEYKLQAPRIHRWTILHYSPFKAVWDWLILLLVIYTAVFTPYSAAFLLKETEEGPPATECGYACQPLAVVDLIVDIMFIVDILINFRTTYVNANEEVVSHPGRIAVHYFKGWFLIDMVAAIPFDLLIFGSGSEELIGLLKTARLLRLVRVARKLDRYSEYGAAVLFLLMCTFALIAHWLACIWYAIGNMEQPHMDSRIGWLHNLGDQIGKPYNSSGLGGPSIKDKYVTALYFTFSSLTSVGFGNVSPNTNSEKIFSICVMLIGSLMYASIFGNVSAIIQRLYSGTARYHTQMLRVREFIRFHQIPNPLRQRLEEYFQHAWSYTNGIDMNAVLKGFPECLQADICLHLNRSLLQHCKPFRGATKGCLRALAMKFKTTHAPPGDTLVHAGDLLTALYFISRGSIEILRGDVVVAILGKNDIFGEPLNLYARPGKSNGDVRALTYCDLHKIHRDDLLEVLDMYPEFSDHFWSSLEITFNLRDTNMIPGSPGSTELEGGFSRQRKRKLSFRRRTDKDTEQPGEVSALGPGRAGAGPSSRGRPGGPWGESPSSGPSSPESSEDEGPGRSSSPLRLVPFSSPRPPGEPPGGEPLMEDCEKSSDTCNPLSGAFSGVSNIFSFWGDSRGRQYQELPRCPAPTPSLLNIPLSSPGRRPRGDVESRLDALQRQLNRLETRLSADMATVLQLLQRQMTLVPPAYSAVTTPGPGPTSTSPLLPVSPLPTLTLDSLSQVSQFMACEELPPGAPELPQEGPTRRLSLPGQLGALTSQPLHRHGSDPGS

Row | SMILES | hERG current change (%, negative = inhibition) at 1uM
1 | COc1ccc(N(C(=O)c2snc(C(N)=O)c2N)C(C(=O)NCC2CCCO2)c2ccc(C)o2)cc1OC (centres unmarked) | 10.6%
2 | COc1ccccc1N1CCN(C(=O)C2CCCN(S(=O)(=O)c3ccc(C)cc3)C2)CC1 (centres unmarked) | -4.08%
3 | Fc1ccccc1-c1nc(-c2cnccc2C(F)(F)F)no1 | 13.4%
4 | OC(CNCc1ccccc1Cl)C(F)(F)F (centres unmarked) | 8.99%
5 | Cc1ccc(/C=C2/C(=O)NC(=O)N(CC3CCCO3)C2=O)s1 (centres unmarked) | -8.41%
6 | COc1ccc(CCNC(=O)CCS(=O)(=O)c2ccc3c(c2)NC(=O)C(C)S3)cc1OC (centres unmarked) | 12.6%
7 | Cc1cccc(N2CCN(S(=O)(=O)c3c(C)noc3/C=C/N(C)C)CC2)c1C | 10.5%
8 | CNCCCC1c2ccccc2C=Cc2ccccc21.Cl | 15.1%
9 | CCc1sc(C(=O)Nc2cccnc2)cc1Br | 9.91%
10 | Cn1c(=O)[nH]c(=O)c2c1nc(CN1CCN(c3ccc(F)cc3)CC1)n2CCCc1ccccc1 | -25.2%
11 | CCOc1ccc(/C(O)=C2\C(=O)C(=O)N(CCN(C)C)C2c2cccc(OC)c2OC)cc1Cl (centres unmarked) | 8.32%
12 | COC(=O)c1sc(NC(=O)COc2cccc(C)c2)nc1C | 4.63%
13 | COc1ccccc1CN(C)C(=O)CN1C(=O)c2ccccc2C1=O | 15.6%
14 | O=C(N/N=C/c1c[nH]c2ccccc12)c1cccc(Cl)c1 | 13.3%
15 | OCC(Cc1ccc2c(c1)OCO2)C(CO)Cc1ccc2c(c1)OCO2 (centres unmarked) | 12.6%
16 | C[NH+](C)CC(C)(C)CNS(=O)(=O)c1ccc(Cl)c(Cl)c1.[Cl-] | 10.5%
17 | COC(=O)Cn1cc(/C=C(/C#N)C(=O)N2CCOCC2)c2ccccc21 | 13.4%
18 | O=C(Cc1cn2ccsc2n1)Nc1ccccn1 | 8.18%
19 | O=C(NC(=S)NNC(=O)c1cccs1)c1ccccc1 | -9.27%
20 | O=C(Nc1ccccc1)Oc1ccc[nH]c1=O | 12.4%
21 | CC1(C)CC(=O)C(C=NCCN2CCN(C(=O)Cc3ccccc3)CC2)=C(O)C1 | -7.37%
22 | COc1ccc(C=O)cc1COc1ccccc1F | 5.63%
23 | O=C(Nc1cccc2ccccc12)c1ccc(F)cc1 | 8.22%

Row | SMILES | hERG current change (%, negative = inhibition) at 1uM
24 | O=C1CN=C(c2ccccc2Cl)c2cc(Br)ccc2N1 | 3.36%
25 | CN(Cc1ccco1)c1ncnc2ccc(-c3ccccc3Cl)cc12 | 8.44%
26 | Cc1occc1C(=O)NCCCc1ccccc1 | 11.2%
27 | O=C(Cc1c(Cl)cccc1Cl)N1CCN(Cc2ccccc2)CC1 | 15.5%
28 | CC(NC(=O)c1ccc2c(c1)OCO2)C(c1cccs1)N1CCN(c2ccccc2)CC1 (centres unmarked) | 12.7%
29 | Cc1cccc(C(=O)NC2CC3CCCC(C2)N3C(=O)Nc2ccccc2)c1 (centres unmarked) | 15.6%
30 | CC(C)CN1CCCC(N2CCN(c3cccc(Cl)c3)CC2)C1 (centres unmarked) | 5.47%
31 | O=C(CSc1ncccn1)Nc1ccc2[nH]c(=O)[nH]c2c1 | 7.29%
32 | N#CCCN(Cc1cccnc1)S(=O)(=O)c1ccc(S(=O)(=O)N2CCCCCC2)cc1 | 1.54%
33 | C=Cn1ccnc1P(=S)(c1ccc(Cl)cc1)c1nccn1C=C | 7.58%
34 | COc1ccc(-c2csc(N3C(=O)CNC3=S)n2)cc1 | 15.8%
35 | CC(C)(C)S(=O)(=O)/C(C#N)=C/c1sccc1C1OCCO1 | 14.9%
36 | Cc1ccc(NC(=O)C2CCCN2C(=O)OCc2ccccc2)c(O)c1 (centres unmarked) | 21.6%
37 | CN(c1ccccc1)S(=O)(=O)c1nnc(NC(=O)COc2ccccc2F)s1 | 5.81%
38 | CCN(CC)c1ccc(C(=O)OCC(=O)NC2CCCCC2C)cc1 (centres unmarked) | 6.91%
39 | CC(C)C(CCNC(=O)CC(Cc1ccccc1)c1ccco1)c1ccco1 (centres unmarked) | -2.11%
40 | CCCCCN1CC(O)=C(c2nc(-c3ccc(Cl)cc3)cs2)C1=N | 11.4%
41 | COc1ccc(-c2cc(C#N)nc(N3CCNCC3)n2)cc1 | 0.443%
42 | COc1ccc(CCNC(=O)C2CCN(C(=O)c3ccc([N+](=O)[O-])cc3)CC2)cc1 | -19.2%
43 | COc1cc(C(=O)Nc2ccccc2N2CCN(S(C)(=O)=O)CC2)cc(OC)c1OC | -7.97%
44 | Cc1ccc2cc(CN(CC3CCCO3)S(=O)(=O)c3ccccc3)c3nnnn3c2c1 (centres unmarked) | 0.733%
45 | CS(=O)(=O)Nc1ccccc1C(=O)NCCSCc1ccccc1 | 9.54%
46 | CCc1c(O)nc2sc3ccccc3n2c1=O | 4.81%

Row | SMILES | hERG current change (%, negative = inhibition) at 1uM
47 | CCOCCCN(C(=O)c1snc(C(N)=O)c1N)C(C(=O)NCCC(C)C)c1ccc(F)cc1 (centres unmarked) | 4.24%
48 | Cc1c(C(=O)OCC(=O)c2ccc3c(c2)OCCO3)oc2ccccc12 | 5.03%
49 | CC(C)Cc1nnc(NC(=O)CCC(=O)Nc2ccccc2)s1 | 8.61%
50 | Cl.c1ccc2c(c1)CNC1(CCCCC1)C2 | 5.12%
51 | CC(=O)Nc1cccc(C(=O)OCC(=O)NC(=O)c2ccccc2)c1 | 9.57%
52 | COc1ccccc1CNC(=O)COC(=O)C1CC1 | 14.1%
53 | CCCc1oc(C(=O)O)cc1CN1CCOCC1.Cl | 13%
54 | O=C(N/N=C/CCc1ccccc1)c1ccc(CN2c3cccc4cccc(c34)S2(=O)=O)cc1 | 6.94%
55 | N#CC(C#N)=Cc1cccn1-c1ccc(C(=O)O)cc1 | 8.4%
56 | CCOC(=O)N1CCC(NC(=O)c2cc(C(=O)Nc3ccc(S(=O)(=O)N4CCCCC4)cc3)ccc2CO)CC1 | 3.28%
57 | CCc1cc(=O)oc2cc(C)cc(OC(C)C(=O)NCc3ccccn3)c12 (centres unmarked) | 11.7%
58 | C/C(=N/NC(=O)c1nnn(-c2nonc2N)c1COc1ccccc1)c1ccccc1Cl | 14.1%
59 | Cl.Clc1ccc(OCc2nnc(SCCN3CCCCC3)n2Cc2ccco2)cc1 | -38.6%
60 | COC(=O)c1ccc(Nc2nc(C)cc(=O)[nH]2)cc1 | 1.84%
61 | COc1cc(CNn2cnnc2)ccc1OCC(=O)NC(C)(C)C | 13.7%
62 | O=C1NC(=O)N(Cc2ccccc2F)C1=O | 15.4%
63 | Cc1[nH]c2ccccc2c1SCC(=O)Nc1nccs1 | 7.38%
64 | CC1CN(C(=O)CSc2cn(CC(=O)N3CCOCC3)c3ccccc23)CC(C)O1 (centres unmarked) | 7.96%
65 | CCC1CCCCN1CCCNC(=O)c1cn(C)c2ccc(S(=O)(=O)N3CCOCC3)cc2c1=O (centres unmarked) | 13.5%
66 | Cc1c(NC(=O)C2Cc3ccccc3CN2C(=O)c2ccco2)c(=O)n(-c2ccccc2)n1C (centres unmarked) | -4.41%
67 | O=C(NC(=S)Nc1cc(S(=O)(=O)N2CCOCC2)ccc1N1CCOCC1)C1CCCC1 | 5.31%
68 | COc1ccccc1/C=C1\CCCC2=C1Nc1nnnn1C2c1ccccc1OC (centres unmarked) | 15.5%
69 | CN1CCC(OC(=O)c2ccco2)CC1.Cl | 6.33%

Row | SMILES | hERG current change (%, negative = inhibition) at 1uM
70 | CC[C@H](C)[C@H](NC(N)=O)C(=O)OCC(=O)NCc1ccc(Cl)cc1 | 2.64%
71 | CSc1cc(/C=N/O)c(SC)s1 | -4.46%
72 | CC(C)=CCN1CCN(Cc2cnc(C)s2)CC1CCO (centres unmarked) | 11.4%
73 | CCN(CC(=O)Nc1ccc(NC(C)=O)cc1)C(=O)CC1OC(=O)c2ccccc21 (centres unmarked) | 10.2%
74 | CCNC(=O)COc1cc(C)c(Cl)c(C)c1 | 7.02%
75 | Cc1ccc(C(=O)NCCNC(=O)COc2ccccc2Cl)cn1 | 8.7%
76 | COc1ccc(-n2c(SCC#N)nc3c(sc(=S)n3-c3ccccc3)c2=O)c(OC)c1 | 16.8%
77 | N/C(=N\N=C\c1ccco1)SC1CC(=O)N(c2ccc(C(=O)O)cc2)C1=O (centres unmarked) | 18.4%
78 | O=C(c1ccccc1)c1ccc2nc(N3CCN(C(=O)c4ccco4)CC3)c3nncn3c2c1 | 0.565%
79 | COc1cccc(CNC(=O)C(CC(C)C)NC(=O)c2ccccc2C)c1 (centres unmarked) | 21.7%
80 | O=C1C2C3C=CC(CNS(=O)(=O)c4ccccc4)(O3)C2C(=O)N1c1ccc(Cl)cc1 (centres unmarked) | -21.3%
81 | Cc1ccc(C(=O)Nn2c(N)c(S(=O)(=O)c3ccc(C)cc3)c3nc4ccccc4nc32)cc1 | -1.95%
82 | CC(=O)Nc1ccc(SCCC2CCCCN2C)cc1 (centres unmarked) | 11.7%
83 | CC(=O)N/N=C\c1ccccc1OC/C=C/c1ccccc1 | 17.4%
84 | COc1ccc(CNC(=O)c2cc3c(s2)CS(=O)C3)cc1 (centres unmarked) | 14.7%
85 | CCOC(=O)c1cc(NC(=O)c2ccccc2)c(=O)oc1-c1ccccc1 | 3.12%
86 | COc1ccc([C@H]2CC(=O)C=C(c3ccc(SC)cc3)C2)cc1 | 13.6%
87 | Cc1ccc(SCC(=O)Nc2ncc(C)s2)cc1 | 6.5%
88 | O=C(Oc1cccnc1)c1cc(S(=O)(=O)N2CCCCC2)ccc1Cl | 13.2%
89 | Cc1cc2c(cc1C)NC1=C(N2)OC(c2cccc(O)c2)C1=O (centres unmarked) | 5.62%
